The supplement of paper PMC7125110
± gives the standard error. This sample is rich in variants without activity.

B1: glmS ribozyme (parent)
chain: AUAAAAGCGCCAGAACUACAGAAAUGUAGUUGACGAGGAGGAGGUUUAUCGAAUUUUCGGCGGAUGCCUCCAAA

Variants of: B1
Assay: self-cleavage kobs at 2500 uM GlcN6P; higher = faster cleavage; RNA array
Settings: with glucosamine-6-phosphate
Outline: (§1)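 Over ~14 h at 37 °C, tiles were imaged as glucosamine-6-phosphate (40 μM to 10 mM) in HEPES/KCl/Mg(OAc)2 buffer flowed across sequenced MiSeq chips. The chips carried barcoded ribozyme variants transcribed in situ by E. coli RNA polymerase and tracked with a hybridised Cy3 probe. After normalisation to baseline and to non-cleaving reference variants, one- or two-exponential decay fits of per-tile medians gave kobs. kcat and KM followed from weighted Michaelis–Menten fits across concentrations.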

| Variant | self-cleavage kobs at 2500 uM GlcN6P [s⁻¹] |
| --- | --- |
| C8U C11U U30A A52C U69G | < 1e-05 |
| C8U C16G G29C | < 1e-05 |
| C8U C34U U55G | < 1e-05 |
| C8U C50A G59C U65G C70U | < 1e-05 |
| C8U C50U U54A C70G | < 1e-05 |
| C8U G13A A15G | < 1e-05 |
| C8U G35U U45C A53U U56G G63A U65G C71U | < 1e-05 |
| C8U G41U C61A A64C | < 1e-05 |
| C8U G60U C70G | < 1e-05 |
| C8U G66U C68U | < 1e-05 |
| C8U U31A G43U U55A | < 1e-05 |
| C8U U56G A64G | < 1e-05 |
| C8U U57A U69G | < 1e-05 |
| G9A A12C C58A | < 1e-05 |
| G9A A12C G59C | < 1e-05 |
| G9A A12U A42G G59U | < 1e-05 |
| G9A A14U U45G | < 1e-05 |
| G9A A15C A48U G63C C67U | < 1e-05 |
| G9A A33U A39C A42U U46G U55A G60U A64U | < 1e-05 |
| G9A A33U G43A U46G G59U | < 1e-05 |
| G9A A36U A53G | < 1e-05 |

| Variant | self-cleavage kobs at 2500 uM GlcN6P [s⁻¹] |
| --- | --- |
| G9A A48U G66C | < 1e-05 |
| G9A C10U U31C G44A | < 1e-05 |
| G9A C11U G13U C34A | < 1e-05 |
| G9A C16A U55G | < 1e-05 |
| G9A G29A A39G G43U U45G U54A | < 1e-05 |
| G9A G29U U31G G32A | < 1e-05 |
| G9A G37C U55C A64U C67U C71A | < 1e-05 |
| G9A G43C U45G U65C | < 1e-05 |
| G9A G44U C61U | < 1e-05 |
| G9A G59U C68G | < 1e-05 |
| G9A U31G G40C | < 1e-05 |
| G9A U55G U65A | < 1e-05 |
| G9C A12C A14G U31C A36U G44U | < 1e-05 |
| G9C A14U G51A | < 1e-05 |
| G9C A33C G37A C67U | < 1e-05 |
| G9C A36C G38U | < 1e-05 |
| G9C C10A A14U U57G | < 1e-05 |
| G9C C11A G63C | < 1e-05 |
| G9C C11G G13U A14U U31A A64U | < 1e-05 |
| G9C C11U U46G | < 1e-05 |
| G9C C11U U54A A64U | < 1e-05 |

| Variant | self-cleavage kobs at 2500 uM GlcN6P [s⁻¹] |
| --- | --- |
| G9C C16A C34A G44C A64G | < 1e-05 |
| G9C C16G G29U | < 1e-05 |
| G9C G13A | < 1e-05 |
| G9C G26U | < 1e-05 |
| G9C G29A G51U C67A | < 1e-05 |
| G9C G32A A36C C67U | < 1e-05 |
| G9C G32U A64U | < 1e-05 |
| G9C G38U G41U U65A | < 1e-05 |
| G9C U30G A42C C70G | < 1e-05 |
| G9C U31C G37U G66C C71G | < 1e-05 |
| G9C U49A A52U | < 1e-05 |
| G9C U49A U54A C67A | < 1e-05 |
| G9U A12U C68U | < 1e-05 |
| G9U A15C G35A G66C C71G | < 1e-05 |
| G9U A39G A53U | < 1e-05 |
| G9U A39G G44C C67G | < 1e-05 |
| G9U A39G G59C | < 1e-05 |
| G9U A52C A53G | < 1e-05 |
| G9U C10G A15G U45G | < 1e-05 |
| G9U C10U C67U | < 1e-05 |
| G9U C11U A14U U31C A64U | < 1e-05 |

| Variant | self-cleavage kobs at 2500 uM GlcN6P [s⁻¹] |
| --- | --- |
| G9U C16G G35U A36C U56C G59U | < 1e-05 |
| G9U C34A G38U U69G | < 1e-05 |
| G9U C67U | < 1e-05 |
| G9U G13U G43C G44U C58G U65G | < 1e-05 |
| G9U G32U G38U A42U | < 1e-05 |
| G9U G38U | < 1e-05 |
| G9U G51U U57A C71A | < 1e-05 |
| G9U U30C G51U | < 1e-05 |
| G9U U45A U57C C68A | < 1e-05 |
| G9U U49C C50G | < 1e-05 |
| G9U U54C G63C | < 1e-05 |
| G9U U54G | < 1e-05 |
| C10A A12C G35A C67G | < 1e-05 |
| C10A A12G G13U U45G U56G | < 1e-05 |
| C10A A12U C50U G59C | < 1e-05 |
| C10A A12U G38U G44C | < 1e-05 |
| C10A A33G C34G G63U C70G | < 1e-05 |
| C10A A33U G37C A53C C61U G63C | < 1e-05 |

Variants of: B1
Assay: self-cleavage kobs at 10000 uM GlcN6P; higher = faster cleavage; RNA array
Settings: with glucosamine-6-phosphate
Outline: as §1

| Variant | self-cleavage kobs at 10000 uM GlcN6P [s⁻¹] |
| --- | --- |
| C8U G35U U45C A53U U56G G63A U65G C71U | < 1e-05 |
| C8U U57A U69G | 0.000575 ± 0.00016 |
| G9A A33U G43A U46G G59U | < 1e-05 |
| G9C G13A | < 1e-05 |
| G9U C67U | < 1e-05 |
| G9U U49C C50G | < 1e-05 |
